Experimental data from the supplement of paper PMC10126150.
Sequences with one replicate were seen in a single cluster, so their values are uncertain.

Test system: ATP
Experiment: switch fluorescence ratio, 500 uM ATP over buffer (Cy3 cluster intensity, sum of 5 cycles each) (fold (ratio)); higher = stronger signal-on switching upon ATP binding; sequences stand for … in TCGTCGGCAGCGTCAGATGTGTATAAGAGACAGTTTTTTTTTTTTTTTTTTTTTTTTT…TC
Details: aptamer strand: ATP DNA aptamer (quencher-CACCTGGGGGAGTATTGCGGAGGAAGG + anchor), 100 nM annealed; ATP concentration: 500 uM; one replicate
Outline: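 Cy3-labelled switching-strand clusters on a modified Illumina MiSeq flow-cell were annealed to 100 nM quencher-labelled ATP aptamer, imaged in selection buffer, then imaged after 15 min with 500 uM ATP at 22 °C. Five buffer/ATP cycles ran, with NaOH stripping and re-annealing between them. The fluorescence ratio is summed target-cycle over summed buffer-cycle Cy3 intensity per cluster, averaged per switch-domain sequence. Clusters outside 100-1000 RFU were excluded.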
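Note: ATP exposure 15 min at 22 °C before imaging.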

| Sequence | switch fluorescence ratio |
| --- | --- |
| CTCTCTCTGC | 1.17 |
| GCCAGTTCCT | 1.04 |
| AAAAGCGAGT | 1.01 |
| TATGGGGATC | 0.98 |
| GGGGCCAATG | 1.01 |
| GGCGAATCTG | 1.01 |
| ATTCATGCT | 0.994 |
| TTTTGAAACA | 1.03 |
| GGACGTATGG | 0.987 |
| ATAGTAAAAT | 1.02 |
| TCTGTCTTAG | 0.996 |
| AGAATCCCGG | 1.04 |
| GTTTATCCGC | 1.39 |
| AAGGGGTTA | 1 |
| TTCCCCTCGT | 1.02 |
| ATTGTGCTGC | 1.02 |
| ATTCATTTGC | 0.959 |
| TAATATGGTC | 1.03 |
| GAGAGTCGAT | 1.01 |
| GCGGTCCCGT | 0.994 |
| ACCTATCCTT | 1.1 |
| CCAACGTCAT | 2.4 |

| Sequence | switch fluorescence ratio |
| --- | --- |
| TAAGGTGAAT | 1.05 |
| GCGACGCTTA | 2.5 |
| TCAGTCGGG | 1.01 |
| CACCATTTAG | 0.994 |
| GCAGGGGCGA | 1.13 |
| CCACGTTTT | 0.987 |
| GAAATCAATG | 0.949 |
| TAAGAGATC | 1.05 |
| TTGCCCCCCT | 1.19 |
| TCGGTCAACG | 0.984 |
| TTCAGGTGTA | 1.45 |
| TTCTGATCTT | 1.02 |
| TTGTAATCCT | 1.17 |
| GGGACAGCGA | 1.08 |
| GACCACCTCG | 1.08 |
| GCTACATTC | 1.04 |
| CCAGGGTGTC | 1.57 |
| CCGATCATCA | 1.08 |
| AAACCAGATG | 1.12 |
| GTCGCGTTAC | 2.69 |
| CCTACGTGGG | 1.37 |
| CGATCGTCAT | 1.16 |

| Sequence | switch fluorescence ratio |
| --- | --- |
| GCATAGTTCT | 1.02 |
| GAGTACGACC | 1.09 |
| TTTTCCACTT | 1.01 |
| ACGCGTTCGT | 0.985 |
| TTGTAGGATC | 0.991 |
| ACTCCTAGAA | 1.16 |
| GTATTTGTAG | 1.02 |
| ACTCTTAACG | 1.03 |
| TGTTTAATCT | 1.03 |
| TAACGGTCAT | 1.03 |
| AATCGGTTTT | 1.03 |
| CGGCGATAG | 1.37 |
| AAAACATCAG | 1.03 |
| ACAGCTATCA | 1.09 |
| CCATGTATCA | 0.954 |
| AATTGACGCT | 1.03 |
| CGATTTCTA | 1 |
| AAAGGAGTAT | 1.01 |
| ACCGTTCAAG | 0.978 |
| CTTGTACG | 0.985 |
| TTTTTCCTCC | 1.9 |
| GCCCTATTCG | 0.955 |

| Sequence | switch fluorescence ratio |
| --- | --- |
| ATACGGGCT | 0.934 |
| ATGTAAGGTC | 1.01 |
| TTACGTCGGT | 1.1 |
| AAGCTATAGG | 1.06 |
| GCGGGCTTCG | 1 |
| GCTAACAAAG | 0.972 |
| ATAATAACGC | 1.02 |
| GGGAGATGGG | 1 |
| TCACCCTTCT | 1.07 |
| ATTTGACGT | 1.06 |
| AGACAAAGCA | 1.04 |
| AGCTCTACTC | 2.04 |
| AAGGTCAACT | 0.957 |
| CTACTTGTT | 0.962 |
| AGGGCACCGG | 1.05 |
| CCGGGAATGA | 1.08 |
| GGGCGAAGG | 1 |
| AGTCTATAAT | 0.979 |
| CCGATAAGTT | 1.04 |
